Measurements taken from paper PMC9774280.
These are yes or no findings as the source states them, for the method shown. In cells and extracts the contact can be indirect. Some entries that bind do so weakly or less than the wild type. For part of these data: Sequences can lack the tags named with a protein.

Amino acid sequences for entries named in this document (tags omitted). Residues count along the entry.
UniProt Q9QUK6, residues 26-835: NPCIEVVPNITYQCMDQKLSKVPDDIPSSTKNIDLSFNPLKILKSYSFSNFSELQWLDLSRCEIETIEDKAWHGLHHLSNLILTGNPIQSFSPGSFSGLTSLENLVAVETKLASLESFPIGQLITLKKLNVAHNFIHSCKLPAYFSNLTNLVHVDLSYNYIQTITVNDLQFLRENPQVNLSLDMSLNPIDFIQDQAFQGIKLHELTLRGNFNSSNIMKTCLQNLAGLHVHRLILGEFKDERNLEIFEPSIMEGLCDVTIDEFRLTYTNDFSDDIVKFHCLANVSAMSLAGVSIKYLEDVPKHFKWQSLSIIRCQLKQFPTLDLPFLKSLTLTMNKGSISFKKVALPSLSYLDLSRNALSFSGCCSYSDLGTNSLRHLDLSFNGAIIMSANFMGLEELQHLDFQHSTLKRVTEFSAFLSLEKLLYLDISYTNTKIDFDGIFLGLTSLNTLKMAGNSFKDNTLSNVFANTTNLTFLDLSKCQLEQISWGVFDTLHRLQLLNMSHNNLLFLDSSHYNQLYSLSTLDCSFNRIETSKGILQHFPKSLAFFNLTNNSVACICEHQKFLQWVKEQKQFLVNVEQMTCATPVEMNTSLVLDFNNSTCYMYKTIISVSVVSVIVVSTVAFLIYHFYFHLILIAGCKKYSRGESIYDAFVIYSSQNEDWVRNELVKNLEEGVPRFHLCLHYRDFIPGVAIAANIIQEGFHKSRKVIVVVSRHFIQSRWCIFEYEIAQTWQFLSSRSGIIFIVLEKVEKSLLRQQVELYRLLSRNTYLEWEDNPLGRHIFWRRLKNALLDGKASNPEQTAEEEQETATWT

Tests used:
[1] = molecular target: T1, GST-NAMPT (10-116), N-terminus of NAMPT (UniProt P43490); assay: pull-down; 293T cells co-transfected with the GST fusion and the tagged partner; NP-40 lysate, glutathione-Sepharose, 4 °C, 4 h; IB with anti-Flag, anti-V5 or anti-Myc
T1 sequence: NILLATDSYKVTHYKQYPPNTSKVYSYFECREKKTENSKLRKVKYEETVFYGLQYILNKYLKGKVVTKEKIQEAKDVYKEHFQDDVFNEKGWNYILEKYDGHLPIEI

[2] = molecular target: Nicotinamide phosphoribosyl transferase (NAMPT), endogenous, extracellular (e) NAMPT of macrophages (mouse (endogenous in BMDMs and colon)) (UniProt Q99KQ4); assay: co-IP; colon of DSS-treated Lenti-shNS-transduced mice (rVehicle, rCT or rCT-NAMPT given); IP with anti-His or anti-NAMPT, IB with anti-TLR4, anti-CYBB or anti-CYBA
[3] = molecular target: Nicotinamide phosphoribosyl transferase (NAMPT), endogenous, extracellular (e) NAMPT of macrophages (mouse (endogenous in BMDMs and colon)) (UniProt Q99KQ4); assay: co-IP; BMDMs primed with LPS (100 ng/mL) and stimulated with ATP (1 mM); NP-40 lysate; IP with anti-NAMPT, IB with anti-TLR4, anti-CYBB, anti-CYBA, anti-ASC or anti-NLRP3
[4] = molecular target: recombinant NAMPT protein (UniProt P43490); assay: co-IP; BMDMs incubated with rNAMPT (1 μg/mL) for 2 h; IP with anti-His, IB with anti-TLR4, anti-CYBB, anti-CYBA, anti-ASC or anti-NLRP3; only the target purified
[5] = molecular target: Nicotinamide phosphoribosyl transferase (NAMPT), endogenous, extracellular (e) NAMPT of macrophages (mouse (endogenous in BMDMs and colon)) (UniProt Q99KQ4); assay: condition: only in Lenti-shITG-transduced (ITGA6/ITGB1 knock-down) mice; co-IP; colon of DSS-treated Lenti-shITG-transduced (ITGA6 and ITGB1 knock-down) mice; IP with anti-His or anti-NAMPT, IB with anti-TLR4, anti-CYBB or anti-CYBA
[6] = molecular target: T2, CYBB, endogenous (mouse (endogenous in BMDMs and colon)) (UniProt Q61093); assay: co-IP; competition: TAT-NAMPT peptides on BMDMs incubated with rNAMPT; loss of the anti-His co-precipitate of TLR4 or CYBB read out; peptide against the endogenous receptor; only the binder purified
T2 sequence: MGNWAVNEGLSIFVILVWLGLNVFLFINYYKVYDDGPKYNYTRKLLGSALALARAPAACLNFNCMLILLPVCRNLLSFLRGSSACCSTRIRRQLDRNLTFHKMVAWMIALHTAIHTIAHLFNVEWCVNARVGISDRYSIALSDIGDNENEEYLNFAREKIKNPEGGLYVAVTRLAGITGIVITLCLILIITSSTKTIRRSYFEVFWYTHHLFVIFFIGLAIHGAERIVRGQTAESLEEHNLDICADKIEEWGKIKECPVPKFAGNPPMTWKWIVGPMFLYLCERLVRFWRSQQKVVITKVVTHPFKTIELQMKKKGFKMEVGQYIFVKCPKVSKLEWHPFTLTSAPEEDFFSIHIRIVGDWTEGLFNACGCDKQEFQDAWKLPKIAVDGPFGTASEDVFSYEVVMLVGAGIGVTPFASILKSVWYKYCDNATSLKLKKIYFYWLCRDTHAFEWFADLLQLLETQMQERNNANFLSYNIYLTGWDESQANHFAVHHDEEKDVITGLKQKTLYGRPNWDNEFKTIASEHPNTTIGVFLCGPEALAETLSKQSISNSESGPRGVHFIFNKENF

[7] = molecular target: TLR4, endogenous (mouse (endogenous in BMDMs and colon)) (UniProt Q9QUK6); assay: as above

B1: V5-CYBB (protein, UniProt P04839 1-570)
chain: MGNWAVNEGLSIFVILVWLGLNVFLFVWYYRVYDIPPKFFYTRKLLGSALALARAPAACLNFNCMLILLPVCRNLLSFLRGSSACCSTRVRRQLDRNLTFHKMVAWMIALHSAIHTIAHLFNVEWCVNARVNNSDPYSVALSELGDRQNESYLNFARKRIKNPEGGLYLAVTLLAGITGVVITLCLILIITSSTKTIRRSYFEVFWYTHHLFVIFFIGLAIHGAERIVRGQTAESLAVHNITVCEQKISEWGKIKECPIPQFAGNPPMTWKWIVGPMFLYLCERLVRFWRSQQKVVITKVVTHPFKTIELQMKKKGFKMEVGQYIFVKCPKVSKLEWHPFTLTSAPEEDFFSIHIRIVGDWTEGLFNACGCDKQEFQDAWKLPKIAVDGPFGTASEDVFSYEVVMLVGAGIGVTPFASILKSVWYKYCNNATNLKLKKIYFYWLCRDTHAFEWFADLLQLLESQMQERNNAGFLSYNIYLTGWDESQANHFAVHHDEEKDVITGLKQKTLYGRPNWDNEFKTIASQHPNTRIGVFLCGPEALAETLSKQSISNSESGPRGVHFIFNKENF
For B1, the binding [1] was “binds”.

B2: CYBB, endogenous (protein, UniProt Q61093 1-570)
chain: T2 sequence
For B2, the binding [2] was “binds”, the binding [3] was “binds” and the binding [4] was “binds”. For the same binder, the binding [5] was “no binding”.

B3: TAT–NAMPT (aa 52–65) peptide (peptide, UniProt P43490 52-65)
peptide: GRKKRRQRRRPQVKYEETVFYGLQYI
B3 was tested, and the binding [6] was “binds” and the binding [7] was “binds”.

B4: CYBA, endogenous (protein, UniProt Q61462 1-192)
chain: MGQIEWAMWANEQALASGLILITGGIVATAGRFTQWYFGAYSIAAGVLICLLEYPRGKRKKGSTMERCGQKYLTSVVKLFGPLTRNYYVRAALHFLLSVPAGFLLATILGTVCLAIASVIYLLAAIRGEQWTPIEPKPKERPQVGGTIKQPPTNPPPRPPAEVRKKPSEGEEEAASAGGPQVNPMPVTDEVV
With B4 the binding [3] was “no binding” and the binding [4] was “no binding (tested: 1 μg/mL rNAMPT)”.
